According to PubChem BioAssay AID1458 (National Center for Advancing Translational Sciences (NCATS), 2008):
About 5,900 (2.8%) of roughly 210,000 compounds were called active. This list was built around the results that the source calls inconclusive (neither active nor inactive); the mix of calls is not that of the screen. The call rests on the fitted dose curve; in most records, active means well fitted activation curve with a large enough effect; inconclusive means small, poorly fitted or top-dose-only effect; inactive means no such curve, though single readings can be large or run the other way. Where the call is inconclusive, the potency comes from a doubtful curve fit.

assay: qHTS Assay for Enhancers of SMN2 Splice Variant Expression; conditions: HEK293 SMN2-luciferase splicing reporter, luminescence, 30-36 h; activity change, positive = activation: at 46.1 µM (top of the series); further: nearly all actives have a fitted effect of over 55% in size; on activity change, positive = activation: % of control where 0% means no effect
Summary of the method: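 HEK293 cells carry an SMN2 […]–luciferase reporter in which exon 7 inclusion puts luciferase in frame. Cells were plated 10-12 h before compound addition, then incubated 30-36 h at 37C. ONE-Glo luminescence was read; sodium butyrate at 4.5 mM final served as control.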
Potency means the concentration at half of the fitted maximal effect; tags describe the fitted curve by direction and shape.

SMILES	Potency	activity change, positive = activation
CCOCCCNC(=O)CCCC1=NS(=O)(=O)c2ccccc2N1	inconclusive: 0.0891 µM [activator, full curve, poor fit]	–
c1ccc(CCNc2nc(-c3ccccn3)cs2)cc1	inconclusive: 1.78 µM [activator, partial curve]	–
CN1CCN(C2=C(Cl)C(=O)N(c3cccc(Cl)c3)C2=O)CC1	inconclusive: 0.501 µM [activator, partial curve, poor fit]	–
CSc1nc2ccc(NC(=O)C3=NN(c4ccccc4)C(=O)CC3)cc2s1	inconclusive: 17.8 µM [activator, partial curve, poor fit]	–
COc1ccccc1N1CCN(C(=O)c2cc(-c3cccc(Cl)c3)on2)CC1	–	inactive: -12.4%
COC(=O)c1sc2nc(N)c(C#N)cc2c1N	inconclusive: 4.47 µM [activator, partial curve, poor fit]	–
CCOc1ccc2nc(NC(=S)N(C)C)sc2c1	active: 3.98 µM	–
O=C(CCSc1ccccn1)Nc1ccc(Br)cc1	active: 14.1 µM	–
C/C(=N\NC(=O)COc1ccc(C(C)(C)C)cc1)c1ccc2c(c1)OCCO2	–	inactive: 1.29%
COc1ccc(NC(=O)c2c(F)c(F)c(F)c(F)c2F)cc1Cl	inconclusive: 2.82 µM [activator, full curve, poor fit]	–
Cc1cccc(NC(=O)CN2NS(=O)(=O)c3ccccc3C2=O)c1	inconclusive: 1.26 µM [activator, full curve, poor fit]	–
CN(C)CC(C)(C)CNS(=O)(=O)c1ccc(OC(F)(F)F)cc1	–	inactive: 6.27%
O=C(O)CN1C(=O)c2ccc(Oc3cccc4c3C(=O)N(CC(=O)O)C4=O)cc2C1=O	inconclusive: 25.1 µM [activator, single point]	–
COc1cccc(-c2nc3ccc([N+](=O)[O-])cc3o2)c1	active: 15.8 µM	–
COC(=O)c1ccc(N=NNc2ccc(C(=O)OC)cc2)cc1	inconclusive: 8.91 µM [activator, partial curve]	–
O=C(O)C(Cc1cccs1)C(=O)O	–	inactive: -3.47% [at 9.22 µM]
Nc1ccccc1Nc1cccc(C(F)(F)F)c1	inconclusive: 14.1 µM [activator, single point]	–
CCOc1ccccc1N(CC)C(=O)c1cc2c(=O)n(CC)c3ccccc3c2s1	–	inactive: -49%
NC(=O)N1CCC2(CC1)NC(=O)N(c1ccccc1)N2	–	inactive: -14.1%
CC(=O)c1ccc(-n2c(SCC(=O)c3c[nH]c4ccccc34)nc3ccccc3c2=O)cc1	inconclusive: 0.0141 µM [activator, full curve, poor fit]	–
CCCOC(=O)C1[C@H]2C(=O)N(CCCOC)C[C@]23C=C[C@H]1O3 (stereo partly specified)	inconclusive: 0.01 µM [activator, full curve, poor fit]	–
N#C/C(=C\c1ccccc1F)c1nc2ccccc2c(=O)[nH]1	–	inactive: -1.96%
Cc1cccc(C(=O)NC(NCc2ccco2)C(Cl)(Cl)Cl)c1 (stereo unspecified)	inconclusive: 0.158 µM [activator, full curve, poor fit]	–

SMILES	Potency	activity change, positive = activation
CCOC(=O)c1cc2c(=O)n3ccccc3nc2n(CC2CCCO2)c1=NC(=O)c1cc(C)cc(C)c1 (stereo unspecified)	inconclusive: 31.6 µM [activator, single point]	–
Cc1ccc(NC(=O)NC(=O)CN2C(=O)NC3(CCc4ccccc43)C2=O)c(C)c1 (stereo unspecified)	inconclusive: 35.5 µM [activator, partial curve]	–
O=S(CC1CC1(Cl)Cl)CC1CC1(Cl)Cl (stereo unspecified)	inconclusive: 2.51 µM [activator, single point]	–
CCOc1ccc(-n2c(=O)c3sc4ccccc4c3n(Cc3ccc(F)cc3)c2=O)cc1	inconclusive: 0.02 µM [activator, full curve, poor fit]	–
COc1ccc(/C=C2\CCC(C3CCCC3)C2=O)cc1Cn1cccn1 (stereo unspecified)	–	inactive: -23.2%
CS(=O)(=O)NCc1ccc(C(=O)NCCOc2ccccc2)cc1	active: 11.2 µM	–
CCOc1cc(NC(=S)NCC2CCCO2)c(OCC)cc1NC(=O)c1ccc(C)cc1 (stereo unspecified)	–	inactive: 2.37%
CC(C)=CC(=O)NCCc1ccccc1	active: 12.6 µM	–
O=C(CSc1nc(-c2ccco2)cc(C(F)(F)F)n1)Nc1ccc2c(c1)CCC2	inconclusive: 3.55 µM [activator, single point]	–
CCOC(=O)c1cnc(-n2nc(C)cc2C)nc1N(C)C	inconclusive: 0.0224 µM [activator, full curve, poor fit]	–
COC(=O)Cc1ccc(NC(=O)c2ccc(C(C)(C)C)cc2)cc1	–	inactive: -86.9%
Cc1cnc(C(=O)Nc2ccc(N3CCOCC3)cc2)cn1	inconclusive: 22.4 µM [activator, single point]	–
CCOC(=O)N/N=C/c1ccccc1F	inconclusive: 12.6 µM [activator, partial curve]	–
O=C1CC(NCc2ccncc2)C(=O)N1c1ccccc1 (stereo unspecified)	inconclusive: 14.1 µM [activator, partial curve, poor fit]	–
Cc1cccc(C)c1NC(=O)c1cccc(COc2cc(Cl)ccc2Cl)c1	active: 12.6 µM	–
CCCn1cnc2cc(NC(=O)c3cccs3)ccc21	active: 15.8 µM	–
CCN(CC)S(=O)(=O)c1ccc(C2=NOC3(C2)N(C)c2ccccc2C3(C)C)cc1 (stereo unspecified)	inconclusive: 3.98 µM [activator, partial curve, poor fit]	–
COCC(C)n1c(COc2ccccc2F)nnc1SCc1c(C)noc1C (stereo unspecified)	inconclusive: 0.0141 µM [activator, full curve, poor fit]	–
CCOc1ccc(-c2cc(CCCC(=O)NCCc3ccc(OC)c(OC)c3OC)no2)cc1	–	inactive: -25%
c1ccn(-c2ccc(-c3ccn[nH]3)cc2)c1	inconclusive: 20 µM [activator, partial curve, poor fit]	–
Oc1ccccc1/C=N/Nc1cccc2cccnc12	inconclusive: 31.6 µM [activator, single point]	–
Cc1cccc(N(C(=O)Cn2nnc3ccccc32)C(C(=O)NCc2ccco2)c2ccncc2)c1 (stereo unspecified)	inconclusive: 35.5 µM [activator, single point]	–
CCOC(=O)c1[nH]c(C)c(C(=O)N2CCN(c3ccccc3OC)CC2)c1C	–	inactive: -19.6%
